# Reference: the supplement of paper PMC6089552
# Screen size: about 3,200 compounds; about 300 (9.4%) showed activity. Only a part is listed here, and it is no random draw.
# System: A673/TR/shEF
# Assay: cell viability (LOESS-normalised, relative to median of negative controls) (log2 ratio); higher = more viable cells (less compound effect), active = hit call of the paper (over 3 MAD below the median)
# Settings: treatment time: 72 h
# In short: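 A673/TR/shEF Ewing sarcoma cells were plated at 1,500 per well in 384-well plates and cultured with or without doxycycline, added 24 h before compounds, to induce EWS-FLI1 shRNA knockdown. Library compounds at two or more concentrations, alongside DMSO controls, were applied for three days. Cell viability was measured by CellTiter-Glo luminescence on an Envision reader. Readings were LOESS-corrected per plate, divided by the median of negative controls and log2-transformed, and hits were wells lying at least three median absolute deviations from the median of all screened wells.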
# [1] = 0.25 µM, library screen: screen1, EWS-FLI1 expression: high (no doxycycline)
# [2] = 0.25 µM, library screen: screen1, EWS-FLI1 expression: low (doxycycline-induced shRNA knockdown)
# [3] = 2.5 µM, library screen: screen1, EWS-FLI1 expression: high (no doxycycline)
# [4] = 2.5 µM, library screen: screen1, EWS-FLI1 expression: low (doxycycline-induced shRNA knockdown)
# [5] = 0.103 µM, library screen: screen3, EWS-FLI1 expression: high (no doxycycline)
# [6] = 0.103 µM, library screen: screen3, EWS-FLI1 expression: low (doxycycline-induced shRNA knockdown)
# [7] = 0.308 µM, library screen: screen3, EWS-FLI1 expression: high (no doxycycline)
# [8] = 0.308 µM, library screen: screen3, EWS-FLI1 expression: low (doxycycline-induced shRNA knockdown)
# [9] = 0.926 µM, library screen: screen3, EWS-FLI1 expression: high (no doxycycline)
# [10] = 0.926 µM, library screen: screen3, EWS-FLI1 expression: low (doxycycline-induced shRNA knockdown)
# [11] = 2.8 µM, library screen: screen3, EWS-FLI1 expression: high (no doxycycline)
# [12] = 2.8 µM, library screen: screen3, EWS-FLI1 expression: low (doxycycline-induced shRNA knockdown)
# [13] = 8.3 µM, library screen: screen3, EWS-FLI1 expression: high (no doxycycline)
# [14] = 8.3 µM, library screen: screen3, EWS-FLI1 expression: low (doxycycline-induced shRNA knockdown)
# [15] = 25 µM, library screen: screen3, EWS-FLI1 expression: high (no doxycycline)
# [16] = 25 µM, library screen: screen3, EWS-FLI1 expression: low (doxycycline-induced shRNA knockdown)
# [17] = 0.25 µM, library screen: screen2, EWS-FLI1 expression: high (no doxycycline)
# [18] = 0.25 µM, library screen: screen2, EWS-FLI1 expression: low (doxycycline-induced shRNA knockdown)
# [19] = 2.5 µM, library screen: screen2, EWS-FLI1 expression: high (no doxycycline)
# [20] = 2.5 µM, library screen: screen2, EWS-FLI1 expression: low (doxycycline-induced shRNA knockdown)
smiles,measurement,setting,value
Cc1cc(=O)oc2c(O)c(O)ccc12,cell viability (log2),[1],active: -0.0965
same,cell viability (log2),[2],inactive: -0.0218
same,cell viability (log2),[3],inactive: 0.0459
same,cell viability (log2),[4],inactive: 0.107
CC12CCCC(O)(C1)C1CC(C)(C)C1CC2 (centres undefined),cell viability (log2),[1],inactive: 0.066
same,cell viability (log2),[2],inactive: -0.02
same,cell viability (log2),[3],inactive: 0.0972
same,cell viability (log2),[4],inactive: 0.0732
CC1(C)[C@@H](O)CC[C@]2(C)[C@H]3C(=O)C=C4[C@H]5C[C@@](C)(C(=O)O)CC[C@]5(C)CC[C@@]4(C)[C@]3(C)CC[C@@H]12,cell viability (log2),[1],inactive: 0.0636
same,cell viability (log2),[2],inactive: 0.00472
same,cell viability (log2),[3],inactive: 0.0997
same,cell viability (log2),[4],inactive: 0.00867
CCCCN1CCCCC1C(=O)Nc1c(C)cccc1C (centres undefined),cell viability (log2),[5],inactive: 0.00164
same,cell viability (log2),[6],inactive: 0.0668
same,cell viability (log2),[1],inactive: 0.0866
same,cell viability (log2),[2],inactive: 0.0118
same,cell viability (log2),[7],inactive: 0.104
same,cell viability (log2),[8],inactive: 0.0911
same,cell viability (log2),[9],inactive: 0.0187
same,cell viability (log2),[10],inactive: 0.0271
same,cell viability (log2),[3],inactive: 0.0729
same,cell viability (log2),[4],inactive: 0.0348
same,cell viability (log2),[11],inactive: 0.069
same,cell viability (log2),[12],inactive: 0.0597
same,cell viability (log2),[13],inactive: 0.0524
same,cell viability (log2),[14],inactive: 0.0226
same,cell viability (log2),[15],inactive: -0.0308
same,cell viability (log2),[16],inactive: 0.0529
CCOC(=O)NNc1nncc2ccccc12,cell viability (log2),[1],inactive: 0.0833
same,cell viability (log2),[2],inactive: 0.0551
same,cell viability (log2),[3],inactive: 0.0996
same,cell viability (log2),[4],inactive: 0.0515
O=c1cccc2cc(O)c(O)c(O)c2c1O,cell viability (log2),[1],inactive: -0.000737
same,cell viability (log2),[2],inactive: -0.0453
same,cell viability (log2),[3],inactive: 0.0367
same,cell viability (log2),[4],inactive: 0.0294
S=c1[nH]c2ccccc2s1,cell viability (log2),[1],inactive: 0.0991
same,cell viability (log2),[2],inactive: 0.0131
same,cell viability (log2),[3],inactive: 0.0972
same,cell viability (log2),[4],inactive: 0.000826
CC(=O)O[C@@H]1CC2C(C)(CC[C@H](O)C2(C)C)C2CC[C@]3(C)C(=CC(=O)O[C@H]3c3ccoc3)C21C (some centres undefined),cell viability (log2),[1],inactive: 0.0235
same,cell viability (log2),[2],inactive: 0.0343
same,cell viability (log2),[3],inactive: 0.111
same,cell viability (log2),[4],inactive: 0.124
CC(C)CCC[C@@H](C)[C@H]1CC[C@H]2[C@@H]3CC[C@H]4C[C@@H](O)CC[C@]4(C)[C@H]3CC[C@]12C,cell viability (log2),[1],inactive: 0.0663
same,cell viability (log2),[2],inactive: 0.113
same,cell viability (log2),[3],inactive: 0.0848
same,cell viability (log2),[4],inactive: 0.113
CC1=C(CCC(=O)O)c2cc3nc(cc4[nH]c(cc5[nH]c(cc1n2)c(C)c5C(C)O)c(C)c4C(C)O)C(C)=C3CCC(=O)O (centres undefined),cell viability (log2),[1],inactive: 0.0188
same,cell viability (log2),[2],inactive: -0.0279
same,cell viability (log2),[3],inactive: 0.0578
same,cell viability (log2),[4],inactive: 0.0876
CC(=O)c1c(O)c(C)c(O)c2c1oc1c(C(C)=O)c(O)c(C)c(O)c12,cell viability (log2),[1],inactive: 0.0278
same,cell viability (log2),[2],inactive: -0.0408
same,cell viability (log2),[3],inactive: 0.0533
same,cell viability (log2),[4],inactive: 0.172
COc1ccc([C@@H]2CC(=O)c3c(O)cc(O)cc3O2)cc1O,cell viability (log2),[1],inactive: 0.00579
same,cell viability (log2),[2],inactive: 0.0571
same,cell viability (log2),[3],inactive: 0.135
same,cell viability (log2),[4],inactive: -0.0786
CC1=C(/C=C/C(C)=C/C=C/C(C)=C/C=C/C=C(C)/C=C/C=C(C)/C=C/[C@@]23O[C@]2(C)C[C@@H](O)CC3(C)C)C(C)(C)C[C@H](O)C1,cell viability (log2),[1],inactive: 0.0858
same,cell viability (log2),[2],inactive: 0.0984
same,cell viability (log2),[3],inactive: 0.143
same,cell viability (log2),[4],inactive: 0.132
C[N+]1(C)CCC(OC(=O)C(c2ccccc2)c2ccccc2)CC1,cell viability (log2),[17],inactive: 0.105
same,cell viability (log2),[18],inactive: 0.109
same,cell viability (log2),[19],inactive: 0.164
same,cell viability (log2),[20],inactive: 0.111
CC(C)[C@@H](C)C=C[C@@H](C)[C@H]1CC[C@H]2C3=CCC4CC(=O)CC[C@]4(C)[C@H]3CC[C@]12C (some centres undefined),cell viability (log2),[1],inactive: 0.0656
same,cell viability (log2),[2],inactive: 0.0592
same,cell viability (log2),[3],inactive: 0.126
same,cell viability (log2),[4],inactive: 0.0808
Cc1[nH]ccc2c1[nH]c1cc(=O)ccc12,cell viability (log2),[1],inactive: 0.0692
same,cell viability (log2),[2],inactive: -0.0204
same,cell viability (log2),[3],inactive: 0.0627
same,cell viability (log2),[4],inactive: 0.0642
CC(=O)Oc1ccccc1C(=O)Nc1ncc([N+](=O)[O-])s1,cell viability (log2),[5],inactive: 0.122
same,cell viability (log2),[6],inactive: -0.0727
same,cell viability (log2),[7],inactive: 0.204
same,cell viability (log2),[8],inactive: 0.0472
same,cell viability (log2),[9],inactive: 0.0737
same,cell viability (log2),[10],inactive: 0.0817
same,cell viability (log2),[11],inactive: 0.174
same,cell viability (log2),[12],inactive: 0.0984
same,cell viability (log2),[13],inactive: 0.0642
same,cell viability (log2),[14],inactive: 0.119
same,cell viability (log2),[15],inactive: 0.0779
same,cell viability (log2),[16],inactive: 0.11
Oc1cc(O)c2c(c1)O[C@H](c1ccc(O)c(O)c1)[C@@H](O)C2,cell viability (log2),[1],inactive: 0.1
same,cell viability (log2),[2],inactive: -0.0966
same,cell viability (log2),[17],inactive: 0.194
same,cell viability (log2),[18],inactive: 0.105
same,cell viability (log2),[3],inactive: 0.117
same,cell viability (log2),[4],inactive: 0.0971
same,cell viability (log2),[19],inactive: 0.073
same,cell viability (log2),[20],inactive: 0.0566
CCN(CC)CCOC(=O)C1(C2CCCCC2)CCCCC1,cell viability (log2),[1],inactive: 0.0984
same,cell viability (log2),[2],inactive: 0.0928
same,cell viability (log2),[17],inactive: 0.151
same,cell viability (log2),[18],inactive: 0.0876
same,cell viability (log2),[3],inactive: 0.266
same,cell viability (log2),[4],inactive: 0.156
same,cell viability (log2),[19],inactive: 0.136
same,cell viability (log2),[20],inactive: 0.0918
